{
  "source": "PubChem BioAssay AID588795",
  "about": "(National Center for Advancing Translational Sciences (NCATS), 2011)",
  "note": "Values joined by “and” are separate entries in the source; they are usually repeats but may differ in a detail not shown here. Equal values may be shown once. The whole screen tested about 390,000 compounds, of which about 1,400 (0.36%) were called active. Inconclusive results, whose numbers are uncertain, are shown with a selection of clear calls. Calls come from the whole dose curve; as a rule, active = well fitted inhibition curve with a large enough effect; inconclusive = small, poorly fitted or top-dose-only effect; inactive = no such curve, though single readings can be large or run the other way. Potencies of inconclusive entries are doubtful fits and often do not repeat.",
  "data": [
    {"target": "Flap endonuclease 1 (Homo sapiens) (UniProt P39748)", "sequence (P39748 whole entry, looked up)": "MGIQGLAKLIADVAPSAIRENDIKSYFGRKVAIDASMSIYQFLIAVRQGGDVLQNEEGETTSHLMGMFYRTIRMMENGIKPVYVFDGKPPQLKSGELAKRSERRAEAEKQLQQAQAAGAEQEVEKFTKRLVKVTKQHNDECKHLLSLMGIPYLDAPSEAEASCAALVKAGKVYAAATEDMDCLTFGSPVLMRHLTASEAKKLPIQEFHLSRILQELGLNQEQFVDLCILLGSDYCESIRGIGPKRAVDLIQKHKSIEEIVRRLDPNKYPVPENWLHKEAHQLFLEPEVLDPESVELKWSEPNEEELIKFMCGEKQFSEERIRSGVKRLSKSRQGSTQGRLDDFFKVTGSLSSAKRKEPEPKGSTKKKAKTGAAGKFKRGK", "assay": "qHTS Assay for the Inhibitors of Human Flap endonuclease 1 (FEN1); note: nearly all actives have a fitted effect of over 65% in size; note: potency is the fitted concentration of half-maximal effect; tags give direction and shape of the fitted curve; for activity change, negative = inhibition: % is set by controls: 0 for no effect and ±100 for the full control effect.", "details": "Recombinant FEN1 flap cleavage, fluorescence, 15 min; series mostly up to 114 µM; activity change, negative = inhibition: at the top concentration", "procedure,_shortened": "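Quantitative HTS format: each compound was titrated, incubated with 10 nM nuclease for 15 min at room temperature, then challenged with flap substrate at 50 nM final. Signal change over 15 min gave concentration–effect curves.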", "values": [
      {"molecule": "O=C1NC2c3c(Cl)sc(Cl)c3C(=O)C2O1", "note": "(stereo not given)", "Potency": "inconclusive: 56.2 µM [inhibitor, partial curve, poor fit]"},
      {"molecule": "COc1ccc(C2CC(c3ccccc3)Oc3cc(OC)ccc32)cc1", "note": "(stereo not given)", "Potency": "inconclusive: 89.1 µM [inhibitor, partial curve, poor fit]"},
      {"molecule": "CC1CCN(C(=O)/C(=C/c2ccccc2Cl)c2ccccc2)CC1", "activity change, negative = inhibition": "inactive: -19.1%"},
      {"molecule": "COc1cccc(/C=N/Nc2nc3ccccc3n3cnnc23)c1O", "Potency": "inconclusive: 50.1 µM [inhibitor, partial curve]"},
      {"molecule": "Cc1nc2ccccc2c(=O)n1/N=C/c1ccc(O)c(O)c1O", "Potency": "inconclusive: 3.55 µM [inhibitor, full curve, poor fit]"},
      {"molecule": "Cc1ccc(OCC(=O)Nc2ccc(N3CCCC3)cc2)cc1C", "Potency": "inconclusive: 89.1 µM [inhibitor, single point]"},
      {"molecule": "COc1ccc(OC)c(CCNC(=O)CN2C(=O)COc3ccc(S(=O)(=O)N4CCC(C)CC4)cc32)c1", "activity change, negative = inhibition": "inactive: -2.72%"},
      {"molecule": "C=CCSc1nnc(NC(=O)C2CSC3(C)CCC(=O)N23)s1", "note": "(stereo not given)", "activity change, negative = inhibition": "inactive: 12.1%"},
      {"molecule": "CCc1ccc(N2C(=O)Cc3c2nc(N)c(C#N)c3N)cc1", "Potency": "inconclusive: 79.4 µM [inhibitor, partial curve, poor fit]"},
      {"molecule": "COc1cc2c(NC3CCN(C)CC3)nc(N3CCCN(C)CC3)nc2cc1OCCCCCN(C)C", "Potency": "active: 22.4 µM"},
      {"molecule": "COc1ccc(Cl)cc1NC(=O)CN(C)Cc1cccs1", "Potency": "inconclusive: 89.1 µM [inhibitor, partial curve, poor fit]"},
      {"molecule": "C/C=C/c1ccc(OCC(O)CN(C)Cc2ccc(SC)cc2)c(OC)c1", "note": "(stereo not given)", "Potency": "inconclusive: 70.8 µM [inhibitor, partial curve, poor fit]"},
      {"molecule": "COC(=O)CCSc1cc(NCCOC(C)=O)c([N+](=O)[O-])c2nonc12", "Potency": "inconclusive: 10 µM [inhibitor, partial curve, poor fit] and inconclusive: 2 µM [inhibitor, full curve]"},
      {"molecule": "CCc1cccc(NS(=O)(=O)c2cc(-c3cnc(C)o3)ccc2OC)c1", "Potency": "inconclusive: 25.1 µM [inhibitor, partial curve, poor fit]"},
      {"molecule": "Cc1cccc(/C=C2/S/C(=N/N=C3\\CC4CCC3(C)C4(C)C)NC2=O)c1", "note": "(stereo not given)", "Potency": "inconclusive: 70.8 µM [inhibitor, partial curve, poor fit]"},
      {"molecule": "CCOC(=O)c1c(NC(=O)CSc2nnc(-c3ccccc3C)n2C)sc(C(C)=O)c1C", "Potency": "inconclusive: 50.1 µM [inhibitor, partial curve, poor fit]"},
      {"molecule": "CCN(CC)CCCNC(=O)CN1C(=O)COc2ccc(S(=O)(=O)N3CCC(C)CC3)cc21", "activity change, negative = inhibition": "inactive: -3.06%"},
      {"molecule": "CCC1CCc2sc(C(=O)NCC(c3ccc(OC)cc3)N3CCOCC3)cc2C1", "note": "(stereo not given)", "Potency": "inconclusive: 35.5 µM [inhibitor, partial curve]"},
      {"molecule": "COC(=O)c1ccc(C)c(NC(=O)CSc2sc3c(O)cc(=O)[nH]c3c2C#N)c1", "Potency": "inconclusive: 50.1 µM [inhibitor, partial curve, poor fit]"},
      {"molecule": "COc1ccc2c(C)cc(SCC(=O)Nc3cc(C(N)=O)cc(C(N)=O)c3)nc2c1", "Potency": "inconclusive: 79.4 µM [inhibitor, partial curve, poor fit]"},
      {"molecule": "CC(=O)c1ccc2c(c1)N(CCCN1CCC(CCO)CC1)c1ccccc1S2", "Potency": "inconclusive: 44.7 µM [inhibitor, partial curve]"},
      {"molecule": "Cc1cc(C)c(CN2C(=O)c3ccccc3S(=O)(=O)c3ccc(C(=O)OCC4CCCO4)cc32)c(C)c1", "note": "(stereo not given)", "activity change, negative = inhibition": "inactive: -10.7%"},
      {"molecule": "CCCN(CC(=O)Nc1ccccc1C)C(=O)c1sc2ccccc2c1Cl", "Potency": "inconclusive: 89.1 µM [inhibitor, partial curve, poor fit]"},
      {"molecule": "CCN(CC)c1ccc(/C=C/c2cccc[n+]2C)c(OC)c1", "Potency": "inconclusive: 70.8 µM [inhibitor, partial curve]"},
      {"molecule": "COc1ccc(OC)c(/C=C/c2ccc3ccccc3n2)c1", "Potency": "inconclusive: 50.1 µM [inhibitor, partial curve]"},
      {"molecule": "CCOC(=O)c1c(N2C(=O)Nc3ccccc3N2O)n[nH]c1-c1cccc(Cl)c1", "activity change, negative = inhibition": "inactive: -6.87%"},
      {"molecule": "O=C(CC1Nc2cccc3cccc(c23)NC1=O)Nc1ccc(F)cc1", "note": "(stereo not given)", "Potency": "inconclusive: 2.82 µM [inhibitor, full curve, poor fit]"},
      {"molecule": "COc1cccc(-n2c(C)nc3c(cnn3-c3ccc(C)cc3)c2=O)c1", "activity change, negative = inhibition": "inactive: -13.4%"},
      {"molecule": "O=Cc1cccn1-c1c(C(=O)O)cnn1-c1ccccc1", "activity change, negative = inhibition": "inactive: 17.4%"},
      {"molecule": "COc1ccc(-c2cc(CCC(=O)N3CCN(c4cc(C)ccc4C)CC3)[nH]n2)cc1", "Potency": "inconclusive: 44.7 µM [inhibitor, partial curve, poor fit]"},
      {"molecule": "Brc1ccc2[nH]c3c(N4CCc5ccccc5C4)ncnc3c2c1", "Potency": "inconclusive: 44.7 µM [inhibitor, partial curve, poor fit]"},
      {"molecule": "COc1ccc(OCc2cc(C(=O)N3CCCC3)no2)c2ccccc12", "Potency": "inconclusive: 44.7 µM [inhibitor, partial curve, poor fit]"},
      {"molecule": "Cn1c2c(c3cnc4cc(Cl)ccc4c31)CNCC2", "Potency": "inconclusive: 56.2 µM [inhibitor, partial curve, poor fit]"},
      {"molecule": "CCN(CC)CC(O)CNc1ccnc2c(Cl)ccc(Cl)c12", "note": "(stereo not given)", "Potency": "inconclusive: 89.1 µM [inhibitor, partial curve, poor fit]"},
      {"molecule": "CN1CCc2c(sc3c2C(=O)NC(c2ccc(-c4cccc(Cl)c4)o2)N3)C1", "note": "(stereo not given)", "Potency": "inconclusive: 89.1 µM [inhibitor, partial curve, poor fit]"},
      {"molecule": "CC(C)c1ccc(S(=O)(=O)Nc2ccc(O)c(Sc3nc4ccccc4s3)c2)cc1", "Potency": "inconclusive: 79.4 µM [inhibitor, partial curve, poor fit]"},
      {"molecule": "COCCn1c(SCC(=O)c2ccccc2)nc2cc(C(=O)NC3CCCC3)ccc2c1=O", "activity change, negative = inhibition": "inactive: 1.96%"},
      {"molecule": "CCc1cc(=O)oc2cc(C)c(CN3CCCCC3)c(O)c12", "Potency": "active: 50.1 µM"},
      {"molecule": "Cc1cc(N2CCCCC2)nc2ccccc12", "activity change, negative = inhibition": "inactive: 0.0245%"},
      {"molecule": "OCC1(Cc2cccc(Cl)c2)CCCN(Cc2sc(N3CCCC3)nc2Cl)C1", "note": "(stereo not given)", "Potency": "inconclusive: 25.1 µM [inhibitor, partial curve, poor fit]"},
      {"molecule": "CCCC(=O)Nc1sc2c(c1C(=O)OCC)CC(C)(C)OC2", "activity change, negative = inhibition": "inactive: -2.59%"},
      {"molecule": "COc1ccc(C2C=C3CNS(=O)(=O)C3CC2OC(=O)c2cccc(C)c2)cc1", "note": "(stereo not given)", "activity change, negative = inhibition": "inactive: -8.35%"},
      {"molecule": "CC1=CC(O)=NS(=O)(=O)O1", "activity change, negative = inhibition": "inactive: 3.43%"},
      {"molecule": "Nc1nc(Nc2cccc(Cl)c2)nc(NCCO)c1[N+](=O)[O-]", "Potency": "inconclusive: 89.1 µM [inhibitor, single point]"},
      {"molecule": "CCn1c(=O)n(CC)c2cc(N3CCCC3)c(NC(=O)c3c(F)cccc3F)cc21", "Potency": "inconclusive: 39.8 µM [inhibitor, single point]"},
      {"molecule": "O=C(CCS(=O)(=O)c1ccccc1)NC1CCCCC1", "Potency": "inconclusive: 89.1 µM [inhibitor, single point]"},
      {"molecule": "CCc1ccc(NCc2cc3ccc(OC)cc3n(CC(=O)Nc3cccc(Cl)c3C)c2=O)cc1", "activity change, negative = inhibition": "inactive: -5.62%"},
      {"molecule": "O=C(CCSc1ccc(F)cc1)NNC(=O)c1ccccc1Cl", "activity change, negative = inhibition": "inactive: 7.51%"},
      {"molecule": "O=C(Nc1sc2c(c1C(=O)O)CCC2)c1ccccc1", "activity change, negative = inhibition": "inactive: -13.8%"},
      {"molecule": "O=C(c1ccco1)N(CCC(c1ccccc1)c1ccco1)Cc1ccco1", "note": "(stereo not given)", "Potency": "inconclusive: 79.4 µM [inhibitor, partial curve]"},
      {"molecule": "O=C1COc2ccc(S(=O)(=O)NCCc3ccccc3)cc2N1", "activity change, negative = inhibition": "inactive: -5.06%"},
      {"molecule": "COc1cc(/C=C2/C(=O)NN(c3ccc(C)c(Cl)c3)C2=O)cc([N+](=O)[O-])c1O", "Potency": "inconclusive: 89.1 µM [inhibitor, single point]"},
      {"molecule": "CC(=O)c1cccc(NC(=O)c2sc3nc4c(cc3c2N)CCCC4)c1", "activity change, negative = inhibition": "inactive: 4.94%"},
      {"molecule": "Cc1cccn2c(=O)c3cc(C(=O)NC4CCCC4)n(C)c3nc12", "Potency": "inconclusive: 89.1 µM [inhibitor, single point]"},
      {"molecule": "COc1ccc(-c2cc(=O)c3cc(OC)c(OC)cc3[nH]2)cc1", "Potency": "inconclusive: 44.7 µM [inhibitor, partial curve, poor fit]"},
      {"molecule": "Cc1cc(C)cc(-n2ccnc2SCC(=O)Nc2nc3ccccc3s2)c1", "Potency": "inconclusive: 89.1 µM [inhibitor, partial curve, poor fit]"},
      {"molecule": "O=c1c2ccccc2sn1-c1ccc(S(=O)(=O)N2CCCCC2)cc1", "Potency": "inconclusive: 100 µM [inhibitor, single point]"},
      {"molecule": "CCCC(=O)NC(c1ccco1)c1cc(Cl)c2cccnc2c1O", "note": "(stereo not given)", "Potency": "inconclusive: 70.8 µM [inhibitor, single point]"},
      {"molecule": "COc1ccc(CC(=O)NCC(=O)NC(Cc2ccccc2)C(=O)O)cc1", "note": "(stereo not given)", "Potency": "inconclusive: 89.1 µM [inhibitor, single point]"},
      {"molecule": "O=C1N=c2ccccc2=C1c1sc(Nc2ccc(O)cc2)nc1O", "Potency": "inconclusive: 56.2 µM [inhibitor, partial curve, poor fit]"},
      {"molecule": "CC(C)(C)OC(=O)[C@H](Cc1ccccc1)NC(=O)c1nc[nH]c1C(=O)N1CCc2ccccc2C1", "Potency": "inconclusive: 56.2 µM [inhibitor, partial curve, poor fit]"},
      {"molecule": "COc1cc2nc(CC(O)c3nc4cc(OC)c(OC)cc4[nH]3)[nH]c2cc1OC", "note": "(stereo not given)", "Potency": "inconclusive: 56.2 µM [inhibitor, partial curve, poor fit]"},
      {"molecule": "C[C@H]1CCC(=O)N([C@H](CC#N)Cc2ccccc2)CC1", "Potency": "inconclusive: 89.1 µM [inhibitor, single point]"},
      {"molecule": "CC(=O)Oc1ccc2c(=O)c(/C=N/c3cc(=O)[nH]c(=S)[nH]3)coc2c1", "activity change, negative = inhibition": "inactive: -15.5%"},
      {"molecule": "COc1ccc(C2=NN(C(=O)c3cccs3)C(O)(C(F)(F)F)C2)cc1", "note": "(stereo not given)", "Potency": "inconclusive: 89.1 µM [inhibitor, partial curve, poor fit]"}
    ]}
  ]
}
